Positions count from the first letter of the chain named. Numbers in names are those of the source. Results are given in words; binding and its absence hold for the method and conditions named. For some of these results: In cells and extracts the contact can be indirect. Some entries that bind do so weakly or less than the wild type.

Amino acid sequences for entries named in this document (tags omitted). A change or cut given only in a name is not applied to a line headed by its entry. Chains listed by the source or under a name are the forms on record and can include a tag or linker. Residues count along the entry.
UniProt Q9UIV1: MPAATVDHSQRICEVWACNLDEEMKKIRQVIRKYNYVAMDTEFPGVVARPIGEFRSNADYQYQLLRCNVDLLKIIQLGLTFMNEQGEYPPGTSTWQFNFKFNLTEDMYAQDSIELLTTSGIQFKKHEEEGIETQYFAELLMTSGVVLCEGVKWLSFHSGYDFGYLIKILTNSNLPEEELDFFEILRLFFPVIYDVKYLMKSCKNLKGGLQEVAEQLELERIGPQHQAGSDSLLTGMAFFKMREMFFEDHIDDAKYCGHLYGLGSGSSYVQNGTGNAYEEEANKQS
recombinant GST tagged CNOT7: residues 11-262 of Q9UIV1

Experiment [1] concerns the target T1, Tob immobilised on the CM5 sensor chip (SPR screening) (human) (UniProt P50616).
T1 sequence: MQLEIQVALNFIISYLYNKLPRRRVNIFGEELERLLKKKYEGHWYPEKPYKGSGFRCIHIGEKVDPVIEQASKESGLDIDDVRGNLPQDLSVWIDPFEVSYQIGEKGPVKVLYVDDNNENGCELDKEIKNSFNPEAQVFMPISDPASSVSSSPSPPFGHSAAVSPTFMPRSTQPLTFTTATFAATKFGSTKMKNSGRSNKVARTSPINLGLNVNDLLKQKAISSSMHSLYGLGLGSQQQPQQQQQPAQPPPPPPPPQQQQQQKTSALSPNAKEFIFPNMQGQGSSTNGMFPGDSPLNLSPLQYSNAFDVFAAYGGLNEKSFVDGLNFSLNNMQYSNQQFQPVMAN
Put plainly: SPR; Biacore, Tob on the CM5 sensor chip; CNOT7 injected alone or mixed with fragment compounds (competitive screening); buffer with 5% DMSO; both purified.

In experiment [2] the target is recombinant GST tagged CNOT7 (UniProt Q9UIV1). Nature of the experiment: pull-down; GST pull-down with recombinant GST tagged CNOT7 and TobN138 (wild type, K63A, D95A); GST as negative control; both purified.
In experiment [3] the target is Flag-CNOT7 (UniProt Q9UIV1). Put plainly: co-IP; Cos7 cells transfected with Tob expression vector (WT, K63A or W93A) with control or Flag-CNOT7 vector; lysates immunoprecipitated with anti-Flag antibody, immunoblot.

Consider “CNOT7 (recombinant, used in SPR, ITC and the deadenylase assay) (from UniProt Q9UIV1 11-262) (enzyme)”, for which the binding result in experiment [1] was “binds”.

B1: human Tob residues 1-138 (TobN138), wild type (domain or fragment, UniProt P50616 1-138, looked up)
chain: MQLEIQVALNFIISYLYNKLPRRRVNIFGEELERLLKKKYEGHWYPEKPYKGSGFRCIHIGEKVDPVIEQASKESGLDIDDVRGNLPQDLSVWIDPFEVSYQIGEKGPVKVLYVDDNNENGCELDKEIKNSFNPEAQV
notes: Tob (Tob1), human, residues 1-138, containing the Box A and Box B motifs; Cloned into pGEX-6P-1 via BamHI and XhoI; A second preparation (His6-SUMO, pET-28b, Rosetta2) was made for the SPR screening; also called Tob1; TobN138 WT
In the case of B1, the binding result in experiment [2] is recorded as “binds”.

B2: TobN138 D95A mutant (domain or fragment, UniProt P50616 1-138)
chain: B1 chain with D95A
Regarding B2, the binding result in experiment [2] is recorded as “no binding”.

B3: TobN138 K63A mutant (domain or fragment, human, UniProt P50616 1-138, looked up)
chain: B1 chain with K63A
notes: Tob (Tob1), human, residues 1-138, with the point mutation K63A; Made by PCR mutagenesis with the human TobN138 expression plasmid as template; source: E. coli BL21 (DE3), purified following the protocol for wild-type Tob
Consider B3, for which the binding result in experiment [2] is listed as “binds”.

B4: Tob wild type (expression vector in Cos7 cells) (protein, UniProt P50616 1-345)
chain: T1 sequence
As to B4, the binding entry in experiment [3] is “binds”.

B5: Tob K63A mutant (expression vector in Cos7 cells) (protein, UniProt P50616 1-345)
chain: T1 sequence with K63A
Consider B5, for which, in experiment [3], the binding result is recorded as “binds”.

B6: Tob W93A mutant (expression vector in Cos7 cells) (protein, UniProt P50616 1-345)
chain: T1 sequence with W93A
With B6, the binding result in experiment [3] was “no binding”.
